{
  "source": "PubChem BioAssay (NCI)",
  "test_in_all_cases": "NCI-60 one-dose screen, 48 h (100 = growth as untreated, 0 = no growth, -100 = all killed)",
  "conditions_in_all_cases": "100 µM",
  "key": {"UACC-62 melanoma": {"system": "UACC-62 melanoma"}, "TK-10 renal": {"system": "TK-10 renal"}, "MCF7 breast": {"system": "MCF7 breast"}},
  "note": "The source holds several records for some structures; these can differ, active in one and inactive in another.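 Single-dose data. Exposure time 48 hours. Values below 10 considered active.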 A number of entries come with more than one value. This list holds those alone. The source may hold further records. The records of an entry are repeats in other runs, samples, wells, individuals or studies. Records carry a tag for their origin. Letters count within one entry. A date in brackets names the month of the test.",
  "data": [
    {"compound": "Cc1ccc(/C=C2/N=C(N/N=C\\C(O)C(O)C(O)CO)NC2=O)cc1", "note": "(stereo unspecified)", "values": [
      {"measurement": "growth", "setting": "UACC-62 melanoma", "result": "inactive: 90.4% [sample A, 1996-03] and active: 4.23% [sample A, 1996-03] and inactive: 95.5%, 28.2% [sample B, 1996-03]"},
      {"measurement": "growth", "setting": "TK-10 renal", "result": "inactive: 125%, 40.6% [sample A, 1996-03] and inactive: 144%, 73.3% [sample B, 1996-03]"},
      {"measurement": "growth", "setting": "MCF7 breast", "result": "inactive: 76.8%, 10.6% [sample A, 1996-03] and inactive: 77.7%, 32.1% [sample B, 1996-03]"}
    ]},
    {"compound": "O=C1NC(N/N=C\\C(O)C(O)C(O)C(O)CO)=N/C1=C/c1ccccc1", "note": "(stereo unspecified)", "values": [
      {"measurement": "growth", "setting": "UACC-62 melanoma", "result": "inactive: 63.5%, 19.8% [sample A, 1996-03] and active: -99.6%, -100% [sample B, 1996-03] and inactive: 85.2%, 51.7% [sample C, 1996-03]"},
      {"measurement": "growth", "setting": "TK-10 renal", "result": "inactive: 129%, 69.6% [sample A, 1996-03] and active: -61.5%, -100% [sample B, 1996-03] and inactive: 140%, 83.8% [sample C, 1996-03]"},
      {"measurement": "growth", "setting": "MCF7 breast", "result": "inactive: 52.7%, 37.2% [sample A, 1996-03] and active: -69.8%, -100% [sample B, 1996-03] and inactive: 74.8%, 57.9% [sample C, 1996-03]"}
    ]}
  ]
}
